According to PMC4336329 (PLoS ONE, 2015):
The campaign covered roughly 310,000 compounds. About 2,200 (0.71%) showed an effect of 50% or more. The effect is printed as a negative number. This is one part of the list.

Target: human ether-à-go-go-related gene (hERG) potassium channel (human, UniProt Q12809)
Experiment: primary screen, population patch clamp on CHO cells stably expressing hERG

Sequence of human ether-à-go-go-related gene (hERG) potassium channel (Q12809 whole entry, looked up): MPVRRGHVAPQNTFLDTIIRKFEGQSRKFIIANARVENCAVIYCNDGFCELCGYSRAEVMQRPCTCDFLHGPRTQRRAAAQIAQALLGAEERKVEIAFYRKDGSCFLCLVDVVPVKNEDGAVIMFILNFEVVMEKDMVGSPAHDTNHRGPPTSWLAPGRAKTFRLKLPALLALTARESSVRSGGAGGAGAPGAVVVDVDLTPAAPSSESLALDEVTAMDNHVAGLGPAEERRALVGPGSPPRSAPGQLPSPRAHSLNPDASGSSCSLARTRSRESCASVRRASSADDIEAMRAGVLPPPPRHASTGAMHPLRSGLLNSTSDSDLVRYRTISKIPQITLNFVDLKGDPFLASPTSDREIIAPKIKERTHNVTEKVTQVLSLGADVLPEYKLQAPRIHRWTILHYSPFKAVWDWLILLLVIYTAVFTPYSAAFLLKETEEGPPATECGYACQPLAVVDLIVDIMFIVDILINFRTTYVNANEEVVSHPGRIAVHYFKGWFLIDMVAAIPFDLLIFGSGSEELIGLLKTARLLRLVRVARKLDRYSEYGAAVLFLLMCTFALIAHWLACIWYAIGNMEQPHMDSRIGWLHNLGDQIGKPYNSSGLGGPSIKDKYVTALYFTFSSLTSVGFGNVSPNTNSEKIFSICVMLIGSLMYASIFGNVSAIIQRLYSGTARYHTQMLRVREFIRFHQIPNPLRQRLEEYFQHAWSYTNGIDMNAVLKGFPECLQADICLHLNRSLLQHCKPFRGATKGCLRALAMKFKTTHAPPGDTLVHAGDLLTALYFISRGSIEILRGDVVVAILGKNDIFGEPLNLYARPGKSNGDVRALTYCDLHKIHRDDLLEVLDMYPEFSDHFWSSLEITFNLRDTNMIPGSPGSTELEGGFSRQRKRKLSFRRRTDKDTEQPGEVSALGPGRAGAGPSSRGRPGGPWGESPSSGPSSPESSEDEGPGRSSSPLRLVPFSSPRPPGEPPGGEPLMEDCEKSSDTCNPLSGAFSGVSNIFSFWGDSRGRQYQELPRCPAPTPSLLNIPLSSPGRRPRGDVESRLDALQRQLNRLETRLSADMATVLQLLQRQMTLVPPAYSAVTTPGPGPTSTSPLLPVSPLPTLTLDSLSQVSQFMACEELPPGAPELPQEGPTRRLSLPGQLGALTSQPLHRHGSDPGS

SMILES	hERG current change (%, negative = inhibition) at 1uM [%]
COc1ccc(CCNC(=S)Nc2ccc(C)cc2C)cc1	16.1
O=C1C2ON(c3ccc(Br)cc3)C(c3cccnc3)C2C(=O)N1C1CCCCC1 (stereo not shown)	-6.05
CCOc1cc(N2CCOCC2)c(OCC)cc1NC(=O)COC(=O)c1ccccc1C	-16.2
CCN(C(=O)CSc1nnc(-c2ccc(F)cc2)c2ccccc12)C1CCS(=O)(=O)C1 (stereo not shown)	-1.41
CC(Sc1nnc(-c2ccncc2)n1-c1ccc(F)cc1)C(=O)NC1CC1 (stereo not shown)	16.9
O=C(c1ccsc1)N1CCCC(N2CCN(c3ccccc3F)CC2)C1 (stereo not shown)	6.45
CC12CCC(=O)N1C(C(=O)Nc1nc3ccccc3s1)CS2 (stereo not shown)	15.4
Cc1ccc(NC(=O)CSc2nc(C)c(Cc3ccccc3)c(=O)[nH]2)cc1C	11.4
CC1CCc2nc(NC(=O)C3CC3)sc2C1 (stereo not shown)	10.6
CC1(C)CC2CC(C)(CN2C(=O)c2cc(-c3ccccc3)on2)C1 (stereo not shown)	6.81
COc1ccc(/C=C(\C#N)C(=O)c2cccn2C)cc1	13.8
Cc1nc(NCCO)c2nnn(Cc3ccccc3F)c2n1	12.3
Cc1cccc(N(CC(=O)NC2CCCCC2)C(=O)c2ccc(C)s2)c1	9.81
O=c1nc(-c2ccccc2)n(-c2ccccc2)c2ncccc12	10.8
COc1ccc(NC(=O)C2CCN(C(=O)c3ccco3)CC2)c(OC)c1	17.1
CC(CN1CCCCC1)OC(=O)c1ccc2c(c1)OCO2.Cl (stereo not shown)	-12.4
COc1cccc(Oc2nc3ncn(Cc4ccccc4)c3c(=O)n2C)c1	8.17
COc1ccc(CCNS(=O)(=O)c2cc(/C=C/C(=O)O)ccc2C)cc1OC	7.76
CCCCn1nc(C(=O)NCC(c2cccs2)N2CCOCC2)c2ccccc2c1=O (stereo not shown)	5.01
CSC[C@H](NC(=O)COc1cc2c(c3oc(=O)c(C)c(C)c13)CCC(C)(C)O2)C(=O)O	11.2
COc1ccc(NC(=O)C2CCCN(c3cc(C)nc4ncnn34)C2)cc1 (stereo not shown)	4.86
CCN(CC)C(=O)C[n+]1ccc(C(N)=O)cc1.[Cl-]	11.2

SMILES	hERG current change (%, negative = inhibition) at 1uM [%]
CC(C)c1nnc(NC(=O)Cc2cccs2)s1	10.4
CCOC(=O)[C@H]1[C@H]2COc3ccc(Cl)cc3[C@@H]2N2C(=O)CN(Cc3ccco3)C(=O)[C@@]12C	12.8
Cc1cc(C)cc(NC(=O)Cn2cc(C=O)c3ccccc32)c1	14.5
CC1CCCCN1C(=O)Cc1ccc(F)cc1 (stereo not shown)	3.52
CC(=O)NC12CC3CC(C1)CC(C(=O)OCC(=O)Nc1ncc(Cl)c(C)c1Cl)(C3)C2	17.6
OCCCNCc1ccc(N(c2ccccc2)c2ccccc2)cc1	7.75
CCN1C(=O)c2ccccc2S(=O)c2ccc(C(=O)NCc3ccc(OC)cc3)cc21 (stereo not shown)	5.88
COc1ccc(NC(=O)CN2CCC(NC(=O)C3CCCCC3)CC2)c([N+](=O)[O-])c1	23.5
COc1ccc(-c2cn3cccnc3n2)cc1NS(=O)(=O)c1ccccc1	20.5
Cc1noc(/C=C/N(C)C)c1S(=O)(=O)N1CCC(C(=O)NC(C)(C)C)CC1	17.8
CCOc1cc2c(cc1OC)C(NC(=O)C(F)(F)F)CC2=O (stereo not shown)	-1.52
Cc1ccc(S(=O)(=O)N2CCC(C(=O)N3CCC3)CC2)cc1	11.3
N#C/C(=C/c1cn(-c2ccccc2)nc1-c1cccc(OCc2ccc(F)cc2)c1)C(=O)NCCCn1ccnc1	10.3
Cc1cc(SCC(=O)c2cccs2)n2nc(C)c(-c3ccccc3)c2n1	-3.64
Cn1c(O)c(C=NC2CCCCC2)c(=O)[nH]c1=S	-3.07
COc1c(C)cc(Br)cc1C(=O)Nc1ccc(Cc2ccncc2)cc1	6.64
CN(c1ccc(C(=O)Nc2ccc3c(c2)n(C)c(=O)n3C)cc1)S(C)(=O)=O	14.2
CCOC(=O)c1ccc(NC(=O)C(=O)NCc2ccco2)cc1	16.3
CCOc1ccc(/C=N\NC(=O)CC(=O)NCCc2ccccc2)cc1	14.3
NC(=O)COC(=O)CCCc1nc2ccccc2s1	4.75
O=C(CCC1CCCN(C(=O)COc2ccccc2)C1)N1CCN(c2ccccn2)CC1 (stereo not shown)	0.893
